Data reported in the supplement of paper PMC3334620.
Whole data set: some 33,000 sequences, median “E-score (-0.5 to 0.5)” near -0.011, cut for the highest 2% near 0.28. The list shows a part of the results.

Target: T1, Gcr1 (UniProt P07261)
T1 sequence: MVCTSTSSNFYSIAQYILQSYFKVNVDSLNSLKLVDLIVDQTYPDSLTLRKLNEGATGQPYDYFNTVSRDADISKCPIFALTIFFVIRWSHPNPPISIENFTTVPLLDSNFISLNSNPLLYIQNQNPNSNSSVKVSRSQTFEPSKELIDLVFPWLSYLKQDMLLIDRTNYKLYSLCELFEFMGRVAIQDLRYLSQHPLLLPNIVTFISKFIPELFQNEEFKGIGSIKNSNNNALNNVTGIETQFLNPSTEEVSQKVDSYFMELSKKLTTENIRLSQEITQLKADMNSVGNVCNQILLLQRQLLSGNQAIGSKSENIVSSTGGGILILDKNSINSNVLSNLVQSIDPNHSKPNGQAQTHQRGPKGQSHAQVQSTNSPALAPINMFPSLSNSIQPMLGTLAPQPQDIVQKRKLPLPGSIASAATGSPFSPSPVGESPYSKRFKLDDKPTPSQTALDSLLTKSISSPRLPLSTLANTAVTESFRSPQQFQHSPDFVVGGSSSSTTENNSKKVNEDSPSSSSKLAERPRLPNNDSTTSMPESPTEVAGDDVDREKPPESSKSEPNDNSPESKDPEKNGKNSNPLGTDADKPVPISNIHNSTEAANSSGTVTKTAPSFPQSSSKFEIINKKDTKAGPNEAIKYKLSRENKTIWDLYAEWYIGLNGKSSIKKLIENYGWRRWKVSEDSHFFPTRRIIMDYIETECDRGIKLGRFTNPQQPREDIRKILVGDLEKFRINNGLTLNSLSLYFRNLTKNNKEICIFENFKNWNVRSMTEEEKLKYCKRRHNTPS
Assay: PBM E-score (8-mer binding enrichment) (E-score (-0.5 to 0.5)); higher = stronger / more preferred TF binding; most listed sequences are background and not binding sites
Conditions: protein concentration: 100 nM; construct: GST-full length
Summary of the method: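 For each ungapped eight-base word taken together with its reverse complement, the Universal PBM Analysis Suite assigned an E-score. Binding data came from GST-tagged yeast transcription factors, applied at about 100-200 nM, on universal all-10-mer Agilent arrays made double-stranded by primer extension. Fluorescent anti-GST marked bound protein, and scans were normalised with masliner.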

In order of falling “PBM E-score” value:
1. AATAGAGG  0.297
2. CGCTTCCG  0.291
3. ATTTCGGA  0.285
4. CCAATTTC  0.247
5. ATTAAAAG  0.239
6. CGGGGACC  0.233
7. ATTCGGGA  0.231
8. CGATACAG  0.231
9. GGTACTTA  0.221
10. CTGGAGGC  0.201
11. ATGTCATC  0.197
12. ACATTGAA  0.184
13. AGACAGAA  0.183
14. GGATTACA  0.18
15. AAGTTTGG  0.179
16. AATATTAC  0.169
17. CGGAGGCC  0.163
18. ACAGGTGC  0.16
19. AGCGGGAT  0.147
20. AGGGCGGG  0.147
21. ATATTCTG  0.146
22. CCCCAAAG  0.146
23. ACCGCCCC  0.135
24. CACTGGCA  0.13
25. ATTCCGAG  0.122
26. AACTAGGC  0.122
27. CGACAACG  0.116
28. CTATTGAA  0.112
29. CTTACGCA  0.111
30. ATAACCTA  0.109
31. CTGTTGGA  0.103
32. CAGTATCC  0.1
33. AATCGTCT  0.099
34. TAAGGGGA  0.099
35. GAACCGAC  0.0921
36. ATCTTACG  0.0919
37. ATATCTCC  0.0918
38. ATCTAGCC  0.0906
39. ACTTATAG  0.088
40. CTTTGCTC  0.0865
41. ATAAAATG  0.0848
42. TCATACAA  0.0816
43. CGAGAATA  0.0782
44. CGGTATTA  0.0762
45. GGTAGCTA  0.0744
46. GAGCCAAC  0.068
47. CTCCCTAC  0.0639
48. CGTAATCC  0.0629
49. TTAAGTAA  0.0602
50. AGTGTATG  0.0598
51. AATTCTTA  0.0587
52. GGGTTTGA  0.0551
53. ATTGACGC  0.0548
54. ATTACATC  0.0535
55. CCGGTACA  0.0516
56. AAGCGAGT  0.0516
57. AGCCGCAG  0.0493
58. GGACACGA  0.0493
59. AGGGGATC  0.0483
60. CGGATAAC  0.0482
61. GTGAAGAA  0.0472
62. CCGTAGCA  0.0464
63. AGGGCTGC  0.046
64. TAGCTGAA  0.0442
65. ATATGTTG  0.0441
66. GCTATATA  0.0427
67. GGAGACTA  0.0426
68. ACCGCAAA  0.0408
69. GTCTGCAC  0.0345
70. CATCAGAA  0.0319
71. ATTAGCGA  0.0317
72. AGCGTCAA  0.0252
73. CTACCAAG  0.0245
74. CCGCCGAG  0.0244
75. CCGGGAAG  0.0216
76. ACTCTGGC  0.0215
77. ATTATCTG  0.0198
78. AAGGCCAG  0.0173
79. AGTGCCAG  0.015
80. TAGTGACA  0.0143
81. ACTTCGAA  0.0115
82. ATTTATGC  0.0089
83. ATGGACAG  0.0052
84. AATACGTC  0.00419
85. ATTAGCTC  0.00193
86. AGTTCCCG  0.00184
87. AGGTATAT  -0.00061
88. GCGCGTTA  -0.00066
89. ATAGAGTC  -0.00255
90. GAAGGGGC  -0.00738
91. AGTTTATC  -0.00932
92. CCCGGGAA  -0.0106
93. CCGCCAGC  -0.0126
94. CTAAGGTA  -0.014
95. GACAAAAC  -0.0151
96. CAGTAGCC  -0.0167
97. AGACCAAT  -0.019
98. CAGGTTCG  -0.0191
99. CGAAGTAC  -0.022
100. GAGTTGAC  -0.0242
101. CAACAGCC  -0.0244
102. AGATAAGG  -0.0257
103. GTCGAGAA  -0.0258
104. CCAGTGGG  -0.0305
105. AGACTACA  -0.0339
106. GTCTGCAA  -0.0339
107. CCGGGAGG  -0.0354
108. TGAGAACA  -0.0354
109. ATTGAGTA  -0.0389
110. GACAGACA  -0.0415
111. GAGAGACA  -0.0427
112. ACACACAC  -0.0429
113. GTGTGTCA  -0.0461
114. AACTGCGG  -0.0471
115. ACACGCTC  -0.05
116. CGAAATGA  -0.0527
117. GTCGCGTA  -0.0557
118. ATGAGATG  -0.0573
119. ACACGTGT  -0.0595
120. CCGTCCGA  -0.062
121. AGAGTCAT  -0.0622
122. TACTTGAA  -0.0673
123. ACTGATGG  -0.069
124. ACCGGACT  -0.0693
125. TACACTAA  -0.0726
126. ATTGTCAG  -0.0749
127. CATTGACG  -0.0781
128. CTAAGGAC  -0.0792
129. CGATCAAC  -0.0794
130. ATTAACGA  -0.0803
131. ACTGTACC  -0.0819
132. GGAAATCA  -0.0851
133. GGAAGAGA  -0.0867
134. ACATCACG  -0.087
135. ATTTCATG  -0.0959
136. ACGGGCGA  -0.096
137. CCCCGCTC  -0.0964
138. CACGAAGA  -0.098
139. CATCTTGG  -0.102
140. AGCGTACT  -0.104
141. ACGTAGTA  -0.105
142. CGTGGTCA  -0.107
143. AAGGACCA  -0.108
144. ATCATCGG  -0.11
145. CATCGGCA  -0.113
146. AGGATGAC  -0.121
147. ACCTTTGC  -0.122
148. GGGGCGCA  -0.123
149. GAACGAAA  -0.13
150. ATTGCGGC  -0.131
151. AGTGATAT  -0.131
152. ATAAAGAC  -0.134
153. ACAGATGG  -0.135
154. GAACGTCA  -0.137
155. GGGCGCAC  -0.138
156. CAGAAGGC  -0.141
157. CCATCGTA  -0.145
158. CTTGCCGA  -0.146
159. ATGGTCGA  -0.147
160. ACTTGTCC  -0.149
161. CAACGAAG  -0.149
162. AAGCATTC  -0.152
163. AGAGTATG  -0.153
164. ACGCTTAG  -0.164
165. GAAACCCC  -0.171
166. AAAGAGCC  -0.173
167. ACCCCCAC  -0.176
168. AGCAAGAA  -0.176
169. ATAACAAT  -0.179
170. CCGCACCG  -0.181
171. ATATCGCA  -0.182
172. CAGTCCTA  -0.183
173. AAATCGCT  -0.183
174. AACATGTC  -0.188
175. GCAGTACA  -0.192
176. ACAAGCCT  -0.193
177. AGGCGTCA  -0.194
178. ACCTCAGC  -0.203
179. AGGTGCAA  -0.204
180. CAGACTCG  -0.205
181. ACACGTCC  -0.207
182. CCAGCTCG  -0.21
183. GATATGGC  -0.223
184. CAGCGATG  -0.226
185. ACGGTCCA  -0.23
186. AAGATCGC  -0.23
187. ATGGCCTG  -0.242
188. AGCTTAAG  -0.243
189. AGCGACCC  -0.264
190. AGGTTAAC  -0.299
191. CTTTGCCA  -0.302
